Experimental data: PMC4336329 (PLoS ONE, 2015)
Among all 310,000 compounds or so, about 14,000 (4.5%) showed an effect of 50% or more. Effects have a minus sign here. The list shows a part of the results.

The compounds below were run against human ether-à-go-go-related gene (hERG) potassium channel (human, UniProt Q12809) (assay: primary screen, population patch clamp on CHO cells stably expressing hERG).
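Further: peak tail current of the secondary pulse compared with the same well before compound.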

Chain of human ether-à-go-go-related gene (hERG) potassium channel (Q12809 whole entry, looked up): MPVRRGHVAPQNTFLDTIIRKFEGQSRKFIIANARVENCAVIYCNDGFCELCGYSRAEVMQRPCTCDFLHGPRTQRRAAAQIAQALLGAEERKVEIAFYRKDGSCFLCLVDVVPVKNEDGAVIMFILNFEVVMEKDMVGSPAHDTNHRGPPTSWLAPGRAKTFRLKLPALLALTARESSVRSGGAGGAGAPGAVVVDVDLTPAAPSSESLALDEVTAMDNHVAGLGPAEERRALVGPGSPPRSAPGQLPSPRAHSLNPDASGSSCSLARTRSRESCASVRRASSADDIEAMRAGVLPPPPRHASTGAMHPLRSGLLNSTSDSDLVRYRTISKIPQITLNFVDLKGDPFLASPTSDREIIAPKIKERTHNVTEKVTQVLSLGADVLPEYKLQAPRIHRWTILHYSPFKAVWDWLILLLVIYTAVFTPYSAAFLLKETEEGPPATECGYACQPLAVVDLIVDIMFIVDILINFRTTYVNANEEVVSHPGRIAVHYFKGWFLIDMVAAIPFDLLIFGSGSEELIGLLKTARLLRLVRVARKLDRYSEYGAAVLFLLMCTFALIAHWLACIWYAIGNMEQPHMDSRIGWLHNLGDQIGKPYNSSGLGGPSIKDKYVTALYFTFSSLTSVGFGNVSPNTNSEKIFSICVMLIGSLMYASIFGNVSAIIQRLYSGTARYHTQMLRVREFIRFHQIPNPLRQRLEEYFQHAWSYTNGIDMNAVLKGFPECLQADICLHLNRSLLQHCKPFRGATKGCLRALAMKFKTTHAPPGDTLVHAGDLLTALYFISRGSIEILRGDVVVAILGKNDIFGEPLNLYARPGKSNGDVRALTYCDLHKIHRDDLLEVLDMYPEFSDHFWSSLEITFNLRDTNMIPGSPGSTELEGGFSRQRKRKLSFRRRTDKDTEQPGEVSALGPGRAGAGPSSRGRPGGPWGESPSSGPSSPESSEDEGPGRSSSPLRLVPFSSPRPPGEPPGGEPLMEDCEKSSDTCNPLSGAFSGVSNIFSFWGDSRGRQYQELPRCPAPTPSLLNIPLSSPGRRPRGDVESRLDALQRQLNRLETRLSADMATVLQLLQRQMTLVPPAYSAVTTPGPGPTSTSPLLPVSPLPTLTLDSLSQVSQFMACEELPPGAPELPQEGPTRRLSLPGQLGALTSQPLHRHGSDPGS

Point of comparison: `Clc1ccc(OCc2nc(-c3ccccn3)n[nH]2)cc1`, “hERG current change (%, negative = inhibition) at 10uM” value -55.6%. Against it:
- COc1ccc(NC(=O)CCC(=O)N/N=C/c2cn(C)nc2C)cc1 — higher, 11.8%
- O=C(O)CNC(=O)c1ccc(Oc2c(F)c(F)c(Oc3ccc(C(=O)NCC(=O)O)cc3)c(F)c2F)cc1 — higher, -1.38%
- Cc1ccc(/C=N/NC(=O)c2ccc(-n3cnnn3)cc2)cc1 — higher, 13.8%
- COc1cccc(N(C(=O)c2snc(C(N)=O)c2N)C(C(=O)NCC2CCCO2)c2c[nH]c3ccccc23)c1 (centres unmarked) — higher, -10.7%
- c1ccc(-c2csc(N3CCSCC3)n2)cc1 — higher, 4.17%
- CC(c1ccccn1)N(CCN(C)C)C(=S)Nc1ccccc1F (centres unmarked) — higher, -18.4%
- CCOC(=O)N1CCN(S(=O)(=O)c2cc(OCC(=O)NC3CCCCC3)c(C)cc2Cl)CC1 — higher, -24.7%
- O=[N+]([O-])c1ccc(O)c2cccnc12 — higher, 9.81%
- CN(Cc1ccccc1)C(=O)COc1ccc(-c2nnco2)cc1 — higher, 8.85%
- COc1ccc(C(=O)Nc2nnc(SCC(=O)NCC3CCCO3)s2)cc1OC (centres unmarked) — higher, 21.4%
- CC(C)(C)c1ccc(OCCNCc2ccccc2)cc1.O=C(O)C(=O)O — higher, -2.69%
- CCCOC1CCCN(C(=O)c2ccc(OC)c(OC3CCN(C(C)C)CC3)c2)C1 (centres unmarked) — higher, -5.71%
- C/C(=N\NS(=O)(=O)c1ccc(C)cc1)c1cc2ccccc2oc1=O — higher, -13.5%
- O=Cc1cc2ccccc2nc1SCc1ccc(Cl)c(Cl)c1 — higher, 1.55%
- Cc1ccc(S(=O)(=O)N2CCN(C(=O)CSc3nc(N)cc(=O)[nH]3)CC2)c(C)c1 — higher, 18.2%
- CC(=O)N1CCN(C(=O)COC(=O)CNC(=O)c2ccccc2C)CC1 — higher, 13.6%
- COC(=O)Cc1[nH]nc2c1C(c1cccc(OC)c1OC)C(C#N)=C(N)O2 (centres unmarked) — higher, 11.2%
- O=C(c1ccc2c(c1)N(Cc1ccc(F)cc1)C(=O)c1ccccc1S2(=O)=O)N1CCN(c2ccccn2)CC1 — higher, 7.45%
- CCCN(CC(=O)Nc1ccccc1OC)C(=O)c1ccc(=O)[nH]c1 — higher, 6.8%
- COc1ccc(Br)cc1CN(C)C(=O)CNC(=O)c1ccc2ccccc2c1 — higher, 10.6%
- COc1ccccc1OCC(=O)Nc1ccc2c(c1)OCCO2 — higher, 4.57%
- Cc1c(NC(=S)NCc2ccc(F)cc2)cccc1[N+](=O)[O-] — higher, 10.2%
- CC(C)CC(=O)Nc1ccnn1C1CCN(C(=O)c2ccc(Cl)cc2F)CC1 — higher, -30.4%
- CC(C)c1ccc(CN2CCN(S(=O)(=O)c3ccc(Cl)s3)CC2)cc1 — higher, -3.1%
- CC(C)(C)C1COc2ccccc2N1C(=O)c1ccccc1Cl (centres unmarked) — higher, 10.5%
- CC(C)(C)C(=O)NC(NC(=S)Nc1ccc(S(N)(=O)=O)cc1)C(Cl)(Cl)Cl (centres unmarked) — higher, 3.64%
- O=C(NC(=S)N1CCCC1)c1ccccc1F — higher, 6.7%
- CCNC(=O)NC(C(=O)OC)C12CC3CC(CC(C3)C1)C2 (centres unmarked) — higher, 7.99%
- Cc1cc(N2C(=O)Cc3ccccc3C2=O)ccc1C(C)C — higher, -15.6%
- CCCCNC(=O)CO/N=C(\C)c1cc2ccccc2o1 — higher, -2.51%
- C/C(CC(=O)Nc1ccc(Cl)cc1Cl)=N\NC(=O)C(=O)N1CCCC1 — higher, 4.17%
- O=C1CCCCCN1CP(=O)(O)CN1CCCCCC1=O — higher, 12%
- O=C(NCc1cccs1)C1CC(c2ccc(Cl)cc2)=NO1 (centres unmarked) — higher, 13.9%
- O=C(COC(=O)CN1C(=O)NC2(CCCC2)C1=O)Nc1c(Cl)cccc1C(F)(F)F — higher, 9.8%
- CCOC(=O)NC(Nc1ccc(C)cn1)(C(F)(F)F)C(F)(F)F — higher, 12.3%
- N#Cc1ccccc1NC(=S)Nc1ccc(F)cc1 — higher, 16.2%
- COc1ccc(N2CCN(C3CCCN(S(=O)(=O)c4ccccc4)C3)CC2)cc1 (centres unmarked) — higher, -31.1%
- O=C(Oc1ccccc1-c1nnco1)c1ccc(Cl)cc1 — higher, -8.74%
- CCOc1ccc(Br)cc1S(=O)(=O)Nc1ccc(C(=O)OC(C)C(=O)N(C)c2ccccc2)cc1 (centres unmarked) — higher, 12.6%
- O=c1[nH]c2cccnc2c2ccsc12 — higher, 15%
- Nc1sc2c([n+]1CCCS(=O)(=O)[O-])CCCC2 — higher, 22.3%
- Cc1c(CC(=O)O)c(=O)oc2c(C)c(OCc3ccccc3Br)ccc12 — higher, 7.13%
- COc1ccc(C(=O)NC2CCN(C(=O)NC3CCCCC3)CC2)cc1 — higher, 10.1%
- CC(C)C(=O)Nc1ccc(S(=O)(=O)N2CCC(c3nc4ccccc4[nH]3)CC2)cc1 — higher, -42.7%
- CCCCCCC(=O)Nc1nc(C)c(-c2csc(Nc3cc(OC)ccc3OC)n2)s1 — higher, 8.99%
- O=[N+]([O-])c1cccnc1N1CCN(c2ccc(F)cc2)CC1 — higher, -22.8%
- O=C(Nc1cccc(-c2cccc(F)c2)c1)C1CCN(C2CCOCC2)CC1 — lower, -75%
- CC1CCCCN1C(=O)Cn1nnc(-c2cccnc2)n1 (centres unmarked) — higher, 13.1%
- CCOc1cc2c(cc1OCC)C(c1ccccc1)N(c1ccc(C(=O)O)cc1)C(=O)C2 (centres unmarked) — higher, 3.43%
- Cc1cc(C(F)(F)F)nn1CC(=O)Nc1ccc(Br)c2cccnc12 — higher, -13.2%
- CCC(=NCCN1CCCCC1)c1c(O)n(C)c(=O)n(C)c1=O — higher, -0.146%
- COc1cc(C(=O)NNC(=S)NC(=O)c2ccc(F)cc2)cc(OC)c1OC — higher, -34.2%
- Cl.c1cc(CNC2C3CC4CC(C3)CC2C4)ccn1 (centres unmarked) — higher, -2.21%
- COc1ccccc1CNC(=O)c1cccc(N(C)C)c1 — higher, -2.52%
- Cc1ccc(S(=O)(=O)N2CCN(C(=O)COC(=O)CCOc3cc(C)ccc3C)CC2)cc1 — higher, 2.58%
- S=C(NCCCN1CCOCC1)N(Cc1ccccc1)Cc1ccccc1 — higher, -32%
- CCN(CC)CCCNC(=O)c1[nH]c2ccccc2c1Sc1ccc(Cl)cc1 — lower, -89.5%
- Nc1c([N+](=O)[O-])c(=O)oc2ccccc12 — higher, 19.1%
- COc1cc(C(=O)Nc2ccc(Oc3ncnc4sc(-c5ccccc5)cc34)cc2)cc(OC)c1OC — higher, 14.2%
- CCOC(=O)C1CCN(S(=O)(=O)c2c(C)[nH]c(C)c2C(=O)N2CCCCC2)CC1 — higher, 8.24%
- Cc1c(OC(C)C(=O)N[C@@H](Cc2ccccc2)C(=O)O)ccc2c3c(c(=O)oc12)CCCC3 (some centres unmarked) — higher, 10.7%
- CCc1ccc(OC(C)C(=O)Nc2ccccc2C(=O)N2CCOCC2)cc1 (centres unmarked) — higher, 5.32%
- NC(=O)C[n+]1cccc2ccccc21.[I-] — higher, 9.16%
- O=C(Nc1cccnc1N1CCOCC1)c1cc2ccccc2oc1=O — higher, 9.33%
- Cc1sc2ncnc(N3CCC(C(=O)Nc4nc(-c5cccs5)cs4)CC3)c2c1C — higher, -3.62%
- CC(C(=O)Nc1nc(-c2ccc(F)cc2)cs1)N1C(=O)C2CC=CCC2C1=O (centres unmarked) — higher, -36.7%
- Cc1ccc(C2=C/C(=C\c3cccnc3)C(=O)O2)cc1 — higher, 30.8%
- O=C(c1ccccc1Cl)N1CCN(S(=O)(=O)c2cccs2)CC1 — higher, 3.29%
- O=C(NN=C1CCCC1)c1n[nH]c2c1CCC2 — higher, 1.63%
- Cc1nc([N+](=O)[O-])cn1CC(=O)Nc1ccc2c(c1)OCO2 — higher, -12.7%
- COc1ccc(NC(=O)CSc2nnc(Cn3cnc([N+](=O)[O-])n3)n2C)cc1 — higher, 1.72%
- CCNC(=S)Nc1cccc(S(=O)(=O)Nc2ccccc2OC)c1 — higher, 4.61%
- CCOc1ccc(NC(=O)c2c[nH]n3c(=O)cc(C4CCN(C(=O)OC(C)(C)C)CC4)nc23)cc1 — higher, -4.42%
- Cc1ccccc1OCCCN1C(=O)C(=O)c2cccc(C)c21 — higher, -0.123%
- CC(C)CC(=O)Nc1nnc(SCC(=O)Nc2ccc3c(c2)OCO3)s1 — higher, 0.521%
- O=C(NC1CCCCC1)c1ccccc1C(F)(F)F — higher, 6.33%
- CC(=O)c1ccc(NC(=O)CCc2nnc3ccc(N4CCCC4)nn23)cc1 — higher, 8.71%
- CC(Cc1nnc(N)s1)c1ccccc1 (centres unmarked) — higher, 8.05%
- Cc1ccc(Cn2nc(C)c3cc(C(=O)OCC(N)=O)sc32)cc1 — higher, 7.64%
- COCC(C)n1c(SC(C)C(=O)NC2CCCCC2C)nc2ccccc2c1=O (centres unmarked) — higher, 10.9%
- CCOC(=O)C1CCCN(S(=O)(=O)c2cccs2)C1 (centres unmarked) — higher, -8.05%
- Cc1ccc(-c2cc(C(=O)Nc3ccc(S(=O)(=O)Nc4nc(C)cc(C)n4)cc3)c3ccccc3n2)cc1 — higher, -1.49%
- O=C(CCC(=O)Nc1ccccc1Cl)N/N=C1\CCCc2ccccc21 — higher, 40.8%
- CCC1CCCCN1C(=O)COc1ccc2c(c1)OCO2 (centres unmarked) — higher, 12.6%
- COCCCNC(=S)Nc1ccc(CC(=O)O)cc1 — higher, 9.09%
- COc1cc(NC(=S)Nc2ccc(Br)cc2Cl)c(OC)cc1Cl — higher, 8.27%
- CCn1c(=S)sc2c(=O)n(CC(=O)NCCCc3ccccc3)c(C)nc21 — higher, 18.8%
- c1cn(CCCNc2ncnc3sc4c(c23)CCC4)cn1 — higher, -37.5%
